Here are results for 71 compounds from PubChem BioAssay AID488969 (Vanderbilt High Throughput Screening Facility, 2010).

The structures appear in SMILES notation. Over roughly 110,000 compounds, “z-score” has its median near -0.1; the highest 2% begin near 2. The list shows a part of the results. Activity calls are given as the source filed them.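 How the source made its calls: active means z-score in the third read window above 3 or below -3; inactive means the rest.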

In the assay the target is Metabotropic glutamate receptor 8 (Rattus norvegicus) (UniProt P70579). As to the kind of experiment: mGluR8 Gi/Go-coupled signaling modulation – cell-based, rat, thallium flux, HTS, primary screen (AID 488969). As to conditions: HEK293 rat mGluR8, GIRK (G protein-gated inwardly rectifying potassium channel) thallium flux, FluoZin2; at 10 µM; stronger effect = higher value; submaximal glutamate (EC20) added with thallium.
UniProt P70579, sequence (P70579 whole entry, looked up): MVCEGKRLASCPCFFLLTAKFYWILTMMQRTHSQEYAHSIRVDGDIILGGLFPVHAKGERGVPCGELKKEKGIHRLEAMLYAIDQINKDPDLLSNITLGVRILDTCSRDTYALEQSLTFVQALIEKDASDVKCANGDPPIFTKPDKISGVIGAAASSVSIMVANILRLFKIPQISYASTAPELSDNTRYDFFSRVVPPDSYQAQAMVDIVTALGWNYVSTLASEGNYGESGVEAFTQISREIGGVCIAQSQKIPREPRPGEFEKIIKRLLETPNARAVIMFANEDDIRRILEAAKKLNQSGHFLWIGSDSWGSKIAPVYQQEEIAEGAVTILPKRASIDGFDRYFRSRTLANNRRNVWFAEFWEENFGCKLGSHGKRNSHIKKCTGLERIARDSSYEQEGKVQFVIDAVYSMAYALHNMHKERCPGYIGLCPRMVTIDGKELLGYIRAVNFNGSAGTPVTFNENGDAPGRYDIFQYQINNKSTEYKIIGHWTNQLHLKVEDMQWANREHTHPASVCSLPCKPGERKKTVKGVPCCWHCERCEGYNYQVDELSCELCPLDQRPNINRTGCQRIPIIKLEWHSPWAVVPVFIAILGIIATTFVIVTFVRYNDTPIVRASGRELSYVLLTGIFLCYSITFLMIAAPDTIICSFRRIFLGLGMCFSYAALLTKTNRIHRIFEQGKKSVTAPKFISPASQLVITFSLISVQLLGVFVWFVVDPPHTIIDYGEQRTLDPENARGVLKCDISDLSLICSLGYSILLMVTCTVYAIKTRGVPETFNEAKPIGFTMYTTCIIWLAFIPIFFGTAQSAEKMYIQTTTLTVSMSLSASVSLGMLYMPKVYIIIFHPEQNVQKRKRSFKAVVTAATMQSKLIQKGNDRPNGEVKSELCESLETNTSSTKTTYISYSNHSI
For the compound `O=C(COc1ccc(F)cc1)OCCN1CCOCC1`, the z-score is -0.127.

`O=C(NCCOC(=O)C1COc2ccccc2O1)c1cccnc1` (stereo unspecified) returned a z-score of 1.24.

`CC1(C(=O)OCC(=O)c2c[nH]c3ccccc23)CC1(Cl)Cl` (stereo unspecified) showed a z-score of -0.259. For the compound `CCc1cc2c(=O)c(-c3nc4ccccc4n3C)c(COCC(=O)O)oc2cc1OC(=O)C(C)(C)C`, the z-score was 0.313.

For `c1ccc(Cn2nnc3c(N4CCc5ccccc54)ncnc32)cc1`, the z-score is -0.0353.

`CCOC(=O)N1CCN(C(=O)COc2ccc3c(c2)C(=O)CC2(CCN(C(C)=O)CC2)O3)CC1`: the z-score came to 0.657. Then `Cc1ccc(C(=O)NNc2cc(=O)n(C)c(=O)n2C)cc1C`, with -0.15; and `Cc1noc(C)c1COc1cccc(C(=O)OC(C)C(=O)Nc2ccc3c(c2)OCO3)c1` (stereo unspecified), with 0.216; and `c1ccc(-c2nnc(SCc3nc4ccccc4[nH]3)o2)cc1`, with -0.0645.

Consider `CCC(c1nnnn1CC1CCCO1)N(CCN1CCOCC1)Cc1cc2cc(C)ccc2[nH]c1=O` (stereo unspecified), for which the z-score was -0.902. Then `COc1ccc(C2C(C#N)=C(C)NC3=C2C(=O)CC(C)(C)C3)cc1` (stereo unspecified), with 0.28; and `Cc1ccccc1N1CC(C(=O)Nc2nnc(SCC(=O)Nc3nccs3)s2)CC1=O` (stereo unspecified), with -0.248. To `O=C(OCc1cccc2ccccc12)c1ccc2c(=O)[nH]c(CN3CCOCC3)nc2c1` belongs -0.0979; to `CC(=O)C1=C(O)C(=O)N(c2nnn(C)n2)C1c1cccs1` (stereo unspecified), 0.175.

In the case of `O=C(Nc1ccc(S(=O)(=O)N2CCOCC2)cc1)c1ccc(Br)o1`, the z-score is -0.545. Then `CC(=O)Nc1ccc(NC(=O)c2ccc(NS(=O)(=O)c3cc(C(C)(C)C)cc(C)c3C)cc2)cc1`, with -0.0167. Then `N#Cc1nc(-c2cccs2)oc1NCCc1ccccc1`, with -1.55.

For `O=C(N/N=C\c1ccc(Cl)cc1Cl)c1sccc1-n1cccc1`, the z-score is -0.203. Then `Cc1cc(C)c2c(c1)NC(=O)C2(O)CC(=O)c1cccs1` (stereo unspecified), with -0.0381; and `COc1cc(C(=S)N2CCCCC2)ccc1O`, with 0.0785. To `N=C1N(/N=C/c2ccccc2)C(=Nc2ccccc2)C(=S)N1c1ccccc1` belongs 1.02; to `CCOc1ccccc1N(CC(=O)O)S(=O)(=O)c1ccccc1`, -0.8; to `CN(C)CCOc1ccccc1-c1ccccc1`, 0.521. To `CCN(CC)CCOC(=O)c1ccc(NC(=O)C2(c3ccccc3)CCCC2)cc1` belongs 0.225; to `CN(C)C(=O)COc1ccc2cc(-c3ccccc3)c(=O)oc2c1`, 2.32. As to `CCCCc1c(C)c(C#N)c2[nH]c3ccccc3n2c1=O`, the z-score amounted to 0.124. Then `CC1=C(C(=O)OC(C)C)C(c2cccs2)C(C(=O)OC(C)C)=C(C)N1`, with -0.281; and `CCN(CC)S(=O)(=O)c1ccc(NC(=O)CSc2ncnc3ccccc23)cc1`, with -0.296. To `CCN(CC)c1ccc(/C=N/N2CCOCC2)cc1` belongs -0.0852; to `O=C(c1cc([N+](=O)[O-])ccc1N1CCCCC1)N1CCc2ccccc21`, -1.08; to `O=C(CSc1nc2[nH]ncc2c(=O)[nH]1)NCc1ccc(F)cc1`, -0.456. To `N#Cc1ccc(-c2cccnc2)nc1SCc1ccc(Cl)cc1Cl` belongs 0.0707; to `Cc1nc(S/C(=C/c2ccc(-c3ccc(Cl)cc3)o2)C(=O)O)n[nH]1`, -0.557; to `COc1cc(OC)cc(C(=O)OCc2cc3ccccc3[nH]c2=O)c1`, 0.455. Compound `CCOC(=S)N/C(=N\S(=O)(=O)c1ccccc1)c1ccccc1` registered a z-score of 0.911. To `CCN(CC)CCNc1nc(-c2ccccc2)c2c(c1C#N)CC(C)(C)OC2` belongs 1.1; to `CCC(c1nnnn1Cc1ccccc1)N1CCN(C(=O)c2ccco2)CC1` (stereo unspecified), -0.92.

Turning to `Cc1nnc(NCCc2ccccc2)n(N)c1=O`, the z-score was 0.495. Then `O=C(c1c(F)cccc1F)N(Cc1ccccn1)C1CC1`, with -0.179; and `O=C(NC1CC1)c1cccc(Nc2ccc(-c3ccc4c(c3)OCCO4)nn2)c1`, with -1.81; and `CCOC(=O)CCCc1c[nH]c2ccccc12`, with -0.315. Then `O=C(NC12CC3CC(CC(C3)C1)C2)c1ccc(-c2ccc(Br)cc2)o1`, with 0.125; and `COc1ccc(OC)c(NS(=O)(=O)c2cc(OC)ccc2OC)c1`, with -0.0402; and `O=S(=O)(c1ccc(S(=O)(=O)N2CCN3CCCC3C2)cc1)N1CCCC1` (stereo unspecified), with 0.676.

Regarding `C=CCn1c(N)cc(=O)nc1SCC(=O)NC(C)c1ccccc1` (stereo unspecified), the z-score is -0.047. To `c1ccc(-c2csc3ncnc(NCCN4CCOCC4)c23)cc1` belongs 0.0632; to `CCCCN(C)CCNS(=O)(=O)c1ccc2c(c1)n(C)c(=O)c(=O)n2C`, -0.533.

For the compound `CCCCOC(=O)c1ccccc1N1C(=O)C2C3CCC(C3)C2C1=O` (stereo unspecified), the z-score is -0.205. To `O=C(CCCCCn1c(=S)[nH]c2ccc(Br)cc2c1=O)NCC1CCCO1` (stereo unspecified) belongs 1.92; to `Cc1cccc(NC(=O)C2C3CCC4C(CCC32)C4(Cl)Cl)c1` (stereo unspecified), -0.281. Then `CC(C)(C)N=C1C([N+](=O)[O-])=CC=C2C1=NC1(CCCCC1)N2O`, with -0.149. Take `COc1ccc(C)cc1NS(=O)(=O)c1cc(C)ccc1C`: the z-score was -0.0933. To `CC(=O)Nc1ccc(Oc2cnc3ccccc3n2)cc1` belongs -0.0432; to `CCc1nnc(NC(=O)C2CCCCC2)s1`, -0.155; to `O=C(Nc1ccc2nc[nH]c2c1)c1ccco1`, 0.869. The compound `CN1CCN(C2=Cc3ccccc3Sc3cc(F)ccc32)CC1` displayed a z-score of 0.561. Then `CC1CCCCC1NC(=O)COC(=O)c1ccc2c(c1Cl)C(=O)c1ccccc1C2=O` (stereo unspecified), with -0.0566; and `COC(=O)CN1C(=S)N(c2ccc(Cl)cc2)C(=O)C1CC(=O)Nc1ccc(Cl)cc1` (stereo unspecified), with 0.304; and `CCC(C)NS(=O)(=O)c1ccc(OCC(=O)NCc2cccnc2)cc1` (stereo unspecified), with -0.0632.

As to `COc1cc(O)oc1C=Nc1ccc(Cl)cc1Cl`, the z-score was -0.0394.

Consider `O=C(CSc1nnc(-c2cccnc2)o1)c1cc2ccccc2oc1=O`, for which the z-score is -0.123. Take `OC(CN1CCN(c2ccccn2)CC1)Cn1c2ccc(Cl)cc2c2cc(Cl)ccc21` (stereo unspecified): the z-score was -0.206. Then `CC(/C=C/c1ccc2c(c1)OCO2)=N\NC(=O)COc1ccccc1C`, with -0.923; and `CC(=O)Nc1ccc(S(=O)(=O)N2CCN(c3cccc(C)c3C)CC2)cc1`, with 0.787; and `O=C(c1ccccc1)N1CCN(C2C3CC4CC(C3)CC2C4)CC1` (stereo unspecified), with -0.163. With `O=c1sc(N2CCN(c3ccccc3F)CC2)nc2ccsc12`, the z-score is active: -4.43.

In turn, `CCOc1ccc2cc(C#N)c(SCC(=O)N3CCOCC3)nc2c1` showed a z-score of 0.126. On to `Cc1nc2ccccc2c(=O)n1NC(=O)Cc1ccc(Br)cc1`, for which the z-score was -0.13.

Compound `Cn1c(-c2ccc[nH]c2=O)nc2cc(Cl)ccc21` showed a z-score of -0.33. To `O=C(Oc1ccc2c(c1)CCC2)N1CCOCC1` belongs -0.618. `CCOC(=O)C1CCN(C(=O)Nc2ccc3oc(C)nc3c2)CC1`: the z-score was found to be 0.732.
